Experiment [1] concerns the target dynactin p150^Glued coiled-coil 1B (CC1B), residues 381–530 (R. norvegicus) (UniProt P28023). Kind of experiment: native gel or EMSA; native PAGE; purified proteins incubated at 25°C for five minutes in equimolar or two fold molar excess; 12% gels with a stacking gel at pH 7.4 or 8–25% gradient gels; both purified.
Experiment [2] has the same target. Kind of experiment: SEC; equimolar Pac11-LC8 complex (wild type or R12A,Q13A,L14A) and CC1B, analytical Superdex 75 10/300 GL; fractions checked by SDS-PAGE; both purified. (In general: Size exclusion chromatography separates by hydrodynamic size, large species first.)
For experiment [3] the target is unchanged. Kind of experiment: AUC; sedimentation equilibrium of a complex of p150Glued, Pac11 1-86 and LC8; data not shown; both purified.
Experiment [4] has the same target. Kind of experiment: AUC; sedimentation equilibrium at a single speed of 25000 rpm at 5, 10, 15, 20 and 25°C; proteins alone and as admixtures, 10 μM each; fit to a single molecular weight; both purified.
The target of experiment [5] is T1, Pac11 1–86 R12A,Q13A,L14A (S. cerevisiae) (UniProt P40960).
T1 sequence: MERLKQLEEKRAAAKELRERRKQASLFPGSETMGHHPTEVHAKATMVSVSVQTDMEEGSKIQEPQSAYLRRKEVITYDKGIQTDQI
Kind of experiment: SEC; equimolar Pac11-LC8 complex (wild type or R12A,Q13A,L14A) and CC1B, analytical Superdex 75 10/300 GL; fractions checked by SDS-PAGE; both purified.

By UniProt entry, the sequences of proteins in these tests, tags left out. Residues count along the entry.
UniProt P28023, residues 381-530: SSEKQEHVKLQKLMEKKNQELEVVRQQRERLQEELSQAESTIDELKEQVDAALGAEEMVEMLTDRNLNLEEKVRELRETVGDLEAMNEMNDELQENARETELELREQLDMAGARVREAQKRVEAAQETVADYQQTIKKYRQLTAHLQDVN
UniProt P63170: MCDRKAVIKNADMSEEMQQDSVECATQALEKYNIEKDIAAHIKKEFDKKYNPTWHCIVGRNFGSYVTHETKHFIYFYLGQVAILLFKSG

For experiment [6], the target named is T2, S. cerevisiae dynein intermediate chain Pac11, residues 1–86, wild type (S. cerevisiae) (UniProt P40960).
T2 sequence: T1 sequence with A12R, A13Q, A14L
The description is as above.

Experiment [7] has as its target T1, Pac11 1–86 R12A,Q13A,L14A (S. cerevisiae). Kind of experiment: native gel or EMSA; native PAGE; purified proteins incubated at 25°C for five minutes in equimolar or two fold molar excess; 12% gels with a stacking gel at pH 7.4 or 8–25% gradient gels; both purified. For orientation: Mobility shift assays separate free from complexed probe on a gel.
Experiment [8] has as its target T2, S. cerevisiae dynein intermediate chain Pac11, residues 1–86, wild type (S. cerevisiae). The description is as above.
For experiment [9] the target is unchanged. Kind of experiment: AUC; sedimentation equilibrium of a complex of p150Glued, Pac11 1-86 and LC8; data not shown; both purified.

Substitutions are numbered along the chain they refer to. These are yes or no findings as the source states them, for the method shown. Some results given as binding are weak or reduced against the parent protein; the word gives no strength.

As for “Pac11 1–86 E9A,K10A,R11A with LC8 (from UniProt P40960 1-86; P63170 1-89) (complex)”, in experiment [1], the binding result is given as “binds”.

Turning to “Pac11 1–86 L17A,R18A with LC8 (from UniProt P40960 1-86; P63170 1-89) (complex)”, the binding entry in experiment [1] is listed as “binds”.

With “Pac11-R12A,Q13A,L14A(12AAA)-LC8 complex (from UniProt P40960 1-86; P63170 1-89)”, the binding result in experiment [2] and in experiment [1] was “no binding” each time. Consider “wt-Pac11^1–86-LC8 complex (from UniProt P40960 1-86; P63170 1-89)”, for which the binding result in [2], in experiment [1] and in experiment [3] was “binds” each time. For the substance “dynactin p150^Glued coiled-coil 1B (CC1B), residues 381–530 (from UniProt P28023 381-530) (domain or fragment)”, the binding result in experiment [4] is “no binding (condition: at temperatures above 13°C)”. For “Pac11 1–86 L4A,K5A,Q6A with LC8 (from UniProt P40960 1-86; P63170 1-89) (complex)”, the binding result in experiment [1] was “binds”. As for “Pac11 1–86 E19A,R20A,R21A with LC8 (from UniProt P40960 1-86; P63170 1-89) (complex)”, in experiment [1], the binding result is listed as “binds”. For “dynein light chain 8 (LC8) (from UniProt P63170 1-89)”, the binding result in experiment [5], in [6], in experiment [7], in experiment [8] and in [9] was “binds” in each case. Turning to “Pac11 1–86 Q6A,L7A,E8A with LC8 (from UniProt P40960 1-86; P63170 1-89) (complex)”, in experiment [1], the binding result is “binds”.

The values above are taken from paper PMC3618186.
